# Source: PubChem BioAssay (Tox21)
# Several values for one entry are separate records, joined by “and”; a condition that tells them apart may be missing. Identical values can stand only once. The shares of active, inactive and inconclusive entries below differ from those in the screen. For some of these results: Potencies beside an inconclusive call are fits to weak or partial responses and may not hold up. Where a structure was tested more than once in an assay, its records may differ in their call. Activity calls are given as the source filed them. Unless noted, calls come from the whole dose curve; as a rule, active = well fitted curve in the direction sought with a large enough effect in the repeat runs; inconclusive = weak or mixed curves; inactive = no such curve, though single readings can be large; an effect the other way counts as inactive or inconclusive.
# Tests used:
# [1] = qHTS assay to identify small molecule antagonists of the TGF-beta/Smad signaling pathway (AID 1346924; active = well fitted inhibition curve with a large enough effect in the signal ratio in the repeat runs, not every such curve was filed as active; inconclusive = weak or mixed curves; the % refers to the signal ratio); details: SBE-bla HEK293T, TGF-beta/Smad reporter, beta-lactamase ratio; activity, negative = inhibition: at 76.8 µM (top of the series) unless noted
# Method in brief: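 Read-out was FRET-substrate fluorescence (405 nm excitation; 460 and 530 nm emission) after 2 h at room temperature. Before that, cells carrying a Smad-binding-element beta-lactamase reporter in HEK 293T had been stimulated 5 h at 37 C with TGF-beta1 (0.25 ng/mL addition solution) in the presence of test compound.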
# [2] = molecular target: Nuclear receptor subfamily 1 group I member 2 (Homo sapiens) (UniProt O75469); test: Human pregnane X receptor (PXR) small molecule agonists, qHTS assay (AID 1346982); details: PXR-Luc HepG2, CYP3A4 luciferase reporter, 24 h; series mostly up to 92.4 µM; note: potency is the fitted concentration of half-maximal effect; nearly all actives have a fitted effect of over 35% in size
# Method in brief: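 After plating in 5% charcoal-stripped FBS and a 5 hr rest, PXR-Luc HepG2 cells received compounds in DMSO. Following 24 hr at 37 C, ONE-Glo was added and light output read.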
# [3] = molecular target: Voltage-gated inwardly rectifying potassium channel KCNH2 (Homo sapiens) (UniProt Q12809); test: Human Ether-a-go-go-Related Gene (hERG) channel small molecule antagonists: fluorescence cell-based qHTS assay (AID 1671200); details: hERG-U2OS cells, FluxOR thallium flux fluorescence; series mostly up to 76.8 µM; note: potency is the fitted concentration of half-maximal effect; nearly all actives have a fitted effect of over 50% in size
# Method in brief: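 First, 1000 cells per well are seeded and cultured overnight at 37 C. Next, FluxOR II dye is loaded for 1 h at room temperature, protected from light. After 10 more minutes, stimulus is added and fluorescence is read.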
# [4] = molecular target: Cytochrome P450 2D6 (Homo sapiens) (UniProt P10635); test: Cytochrome P450 Family 2 Subfamily D Member 6 (CYP2D6) small molecule antagonists: luciferase reporter qHTS assay (AID 1671196); details: P450-Glo CYP2D6 enzyme assay, luciferin luminescence, 1 h; series mostly up to 115 µM; note: nearly all actives have a fitted effect of over 50% in size; note: potency is the fitted concentration of half-maximal effect; for activity change, negative = inhibition: % is set by controls: 0 for no effect and ±100 for the full control effect
# Method in brief: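 Quantitative HTS of Tox21 chemicals against CYP2D6 using a luminescent proluciferin substrate. After NADPH addition, 1 h room-temperature reaction; luminescence recorded 20 min post detection reagent.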
# [5] = molecular target: Cytochrome P450 2C19 (Homo sapiens) (UniProt P33261); test: Cytochrome P450 Family 2 Subfamily C Member 19 (CYP2C19) small molecule antagonists: luciferase reporter qHTS assay (AID 1671197); details: P450-Glo CYP2C19 enzyme, luciferin luminescence, 1 h; series mostly up to 115 µM; note: potency is the fitted concentration of half-maximal effect; nearly all actives have a fitted effect of over 65% in size
# Method in brief: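 Relative luminescence units recorded 20 min after the detection reagent stopped a 1 h, 37C CYP2C19 reaction on proluciferin substrate, which was started by NADPH regeneration following 10 min room-temperature compound preincubation; ketoconazole positive control.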
# [6] = molecular target: Cytochrome P450 1A2 (Homo sapiens) (UniProt P05177); test: Cytochrome P450 Family 1 Subfamily A Member 2 (CYP1A2) small molecule antagonists: luciferase reporter qHTS assay (AID 1671199); details: P450-Glo CYP1A2 enzyme, luciferin luminescence, 1 h; series mostly up to 115 µM; note: nearly all actives have a fitted effect of over 50% in size; note: potency is the fitted concentration of half-maximal effect; for activity change, negative = inhibition: % is set by controls: 0 for no effect and ±100 for the full control effect
# Method in brief: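 Quantitative high-throughput format using the P450-Glo CYP1A2 system. Reaction initiated by NADPH regeneration solution, 1 h at room temperature, then stopped with detection reagent; luminescence measured 20 min later.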
# [7] = molecular target: Cytochrome P450 2C9 (Homo sapiens) (UniProt P11712); test: Cytochrome P450 Family 2 Subfamily C Member 9 (CYP2C9) small molecule antagonists: luciferase reporter qHTS assay (AID 1671198); details: P450-Glo CYP2C9 enzyme assay, luciferin luminescence; series mostly up to 115 µM; note: nearly all actives have a fitted effect of over 50% in size; note: potency is the fitted concentration of half-maximal effect; for activity change, negative = inhibition: % is set by controls: 0 for no effect and ±100 for the full control effect
# Method in brief: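 P450-Glo proluciferin substrate with CYP2C9 enzyme; 10 min RT preincubation, then NADPH regeneration 1 h at 37C; luciferin detection reagent 20 min RT, luminescence in relative luminescence units.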
# [8] = molecular target: Cytochrome P450 3A4 (Homo sapiens) (UniProt P08684); test: Cytochrome P450 Family 3 Subfamily A Member 4 (CYP3A4) small molecule antagonists: luciferase reporter qHTS assay (AID 1671201); details: P450-Glo CYP3A4 enzyme, luciferin luminescence, 1 h; series mostly up to 115 µM
# Method in brief: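 Enzyme and proluciferin substrate are mixed with test chemicals for 10 min, then NADPH regeneration system drives turnover for 1 h at room temperature. A detection reagent halts the reaction; luminescence after 20 min gives relative activity.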
# [9] = molecular target: Nuclear receptor subfamily 1 group I member 2 (Homo sapiens) (UniProt O75469); test: Human pregnane X receptor (PXR) activation by small molecules, qHTS assay (AID 1346985); details: DPX-2 HepG2 CYP3A4-luciferase, 24 h; series mostly up to 38.3 µM; note: nearly all actives have a fitted effect of over 40% in size; note: potency is the fitted concentration of half-maximal effect; for activation: % is set by controls: 0 for no effect and ±100 for the full control effect
# Method in brief: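 DPX-2 cells (HepG2 co-transfected with a PXR response element and a CYP3A4-promoter luciferase construct) were seeded at 2,000 per well, rested 5 hr at 37C, then exposed to DMSO-dissolved compounds for 24 hr. Activation was read as luciferase luminescence.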
# Tags give direction and shape of the fitted curve.
# Sequence of UniProt P10635 (P10635 whole entry, looked up): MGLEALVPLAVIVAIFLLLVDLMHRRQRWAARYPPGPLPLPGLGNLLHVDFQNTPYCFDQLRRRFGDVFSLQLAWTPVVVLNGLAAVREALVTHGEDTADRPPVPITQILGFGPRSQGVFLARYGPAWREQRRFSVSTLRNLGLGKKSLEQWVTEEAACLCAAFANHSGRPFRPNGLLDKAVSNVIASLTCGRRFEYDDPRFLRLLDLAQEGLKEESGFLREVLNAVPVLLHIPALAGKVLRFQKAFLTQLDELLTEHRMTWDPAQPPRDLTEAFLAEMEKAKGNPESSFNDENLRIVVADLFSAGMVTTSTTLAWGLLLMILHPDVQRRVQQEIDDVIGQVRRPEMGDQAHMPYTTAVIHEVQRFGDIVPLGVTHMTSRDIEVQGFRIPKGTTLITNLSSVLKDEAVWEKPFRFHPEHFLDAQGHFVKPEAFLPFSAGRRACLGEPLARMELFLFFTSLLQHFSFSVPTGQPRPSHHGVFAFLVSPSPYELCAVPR
# Sequence of UniProt P05177 (P05177 whole entry, looked up): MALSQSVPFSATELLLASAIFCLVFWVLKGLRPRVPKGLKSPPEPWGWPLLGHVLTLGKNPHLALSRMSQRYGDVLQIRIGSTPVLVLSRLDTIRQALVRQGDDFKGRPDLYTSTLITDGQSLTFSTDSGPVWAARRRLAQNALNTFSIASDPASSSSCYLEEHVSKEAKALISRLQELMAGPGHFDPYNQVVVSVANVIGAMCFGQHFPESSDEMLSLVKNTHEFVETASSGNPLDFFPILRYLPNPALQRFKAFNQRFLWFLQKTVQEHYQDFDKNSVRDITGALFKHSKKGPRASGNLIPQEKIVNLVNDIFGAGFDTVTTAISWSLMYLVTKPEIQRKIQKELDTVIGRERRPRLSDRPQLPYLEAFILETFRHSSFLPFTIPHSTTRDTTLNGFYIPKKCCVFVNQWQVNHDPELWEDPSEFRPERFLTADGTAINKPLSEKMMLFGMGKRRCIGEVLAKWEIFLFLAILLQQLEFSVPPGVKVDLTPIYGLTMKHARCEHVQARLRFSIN
# Sequence of UniProt O75469 (O75469 whole entry, looked up): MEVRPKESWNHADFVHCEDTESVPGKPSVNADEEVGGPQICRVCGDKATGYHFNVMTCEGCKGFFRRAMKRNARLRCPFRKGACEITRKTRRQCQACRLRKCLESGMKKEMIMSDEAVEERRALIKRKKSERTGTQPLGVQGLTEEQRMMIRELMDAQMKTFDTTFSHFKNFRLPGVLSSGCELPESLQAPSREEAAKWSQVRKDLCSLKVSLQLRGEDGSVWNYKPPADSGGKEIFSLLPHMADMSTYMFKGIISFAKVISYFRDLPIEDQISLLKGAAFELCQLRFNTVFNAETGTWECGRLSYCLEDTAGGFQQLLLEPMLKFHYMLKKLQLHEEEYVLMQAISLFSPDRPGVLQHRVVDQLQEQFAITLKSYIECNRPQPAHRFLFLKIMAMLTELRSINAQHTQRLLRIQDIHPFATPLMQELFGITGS
# Sequence of UniProt P11712 (P11712 whole entry, looked up): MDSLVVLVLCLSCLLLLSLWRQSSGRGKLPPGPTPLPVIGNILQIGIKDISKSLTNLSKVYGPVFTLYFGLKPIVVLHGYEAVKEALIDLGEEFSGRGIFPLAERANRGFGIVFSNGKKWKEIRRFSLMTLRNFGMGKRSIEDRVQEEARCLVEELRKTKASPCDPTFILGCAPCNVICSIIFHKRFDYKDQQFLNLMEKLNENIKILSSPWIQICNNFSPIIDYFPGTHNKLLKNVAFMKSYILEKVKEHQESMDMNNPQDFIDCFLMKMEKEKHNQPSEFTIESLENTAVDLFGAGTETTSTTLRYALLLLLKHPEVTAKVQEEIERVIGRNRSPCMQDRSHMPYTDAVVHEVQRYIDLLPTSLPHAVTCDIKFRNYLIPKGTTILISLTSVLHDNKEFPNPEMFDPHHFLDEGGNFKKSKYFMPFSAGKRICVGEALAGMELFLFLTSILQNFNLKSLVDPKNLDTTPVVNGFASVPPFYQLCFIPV
# Sequence of UniProt P33261 (P33261 whole entry, looked up): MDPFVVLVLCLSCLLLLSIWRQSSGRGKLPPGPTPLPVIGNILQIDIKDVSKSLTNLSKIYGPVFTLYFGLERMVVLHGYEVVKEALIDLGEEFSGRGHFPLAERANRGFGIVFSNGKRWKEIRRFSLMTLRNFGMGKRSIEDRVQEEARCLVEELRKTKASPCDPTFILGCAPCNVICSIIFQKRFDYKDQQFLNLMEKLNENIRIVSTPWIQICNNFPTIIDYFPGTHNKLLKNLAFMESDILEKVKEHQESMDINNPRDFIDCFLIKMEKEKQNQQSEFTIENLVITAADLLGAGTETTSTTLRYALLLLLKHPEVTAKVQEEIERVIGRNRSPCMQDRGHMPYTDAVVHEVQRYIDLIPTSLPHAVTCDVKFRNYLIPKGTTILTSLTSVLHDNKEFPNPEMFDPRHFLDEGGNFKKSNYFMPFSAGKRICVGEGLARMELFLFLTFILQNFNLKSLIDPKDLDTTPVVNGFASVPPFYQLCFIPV
# Sequence of UniProt Q12809 (Q12809 whole entry, looked up): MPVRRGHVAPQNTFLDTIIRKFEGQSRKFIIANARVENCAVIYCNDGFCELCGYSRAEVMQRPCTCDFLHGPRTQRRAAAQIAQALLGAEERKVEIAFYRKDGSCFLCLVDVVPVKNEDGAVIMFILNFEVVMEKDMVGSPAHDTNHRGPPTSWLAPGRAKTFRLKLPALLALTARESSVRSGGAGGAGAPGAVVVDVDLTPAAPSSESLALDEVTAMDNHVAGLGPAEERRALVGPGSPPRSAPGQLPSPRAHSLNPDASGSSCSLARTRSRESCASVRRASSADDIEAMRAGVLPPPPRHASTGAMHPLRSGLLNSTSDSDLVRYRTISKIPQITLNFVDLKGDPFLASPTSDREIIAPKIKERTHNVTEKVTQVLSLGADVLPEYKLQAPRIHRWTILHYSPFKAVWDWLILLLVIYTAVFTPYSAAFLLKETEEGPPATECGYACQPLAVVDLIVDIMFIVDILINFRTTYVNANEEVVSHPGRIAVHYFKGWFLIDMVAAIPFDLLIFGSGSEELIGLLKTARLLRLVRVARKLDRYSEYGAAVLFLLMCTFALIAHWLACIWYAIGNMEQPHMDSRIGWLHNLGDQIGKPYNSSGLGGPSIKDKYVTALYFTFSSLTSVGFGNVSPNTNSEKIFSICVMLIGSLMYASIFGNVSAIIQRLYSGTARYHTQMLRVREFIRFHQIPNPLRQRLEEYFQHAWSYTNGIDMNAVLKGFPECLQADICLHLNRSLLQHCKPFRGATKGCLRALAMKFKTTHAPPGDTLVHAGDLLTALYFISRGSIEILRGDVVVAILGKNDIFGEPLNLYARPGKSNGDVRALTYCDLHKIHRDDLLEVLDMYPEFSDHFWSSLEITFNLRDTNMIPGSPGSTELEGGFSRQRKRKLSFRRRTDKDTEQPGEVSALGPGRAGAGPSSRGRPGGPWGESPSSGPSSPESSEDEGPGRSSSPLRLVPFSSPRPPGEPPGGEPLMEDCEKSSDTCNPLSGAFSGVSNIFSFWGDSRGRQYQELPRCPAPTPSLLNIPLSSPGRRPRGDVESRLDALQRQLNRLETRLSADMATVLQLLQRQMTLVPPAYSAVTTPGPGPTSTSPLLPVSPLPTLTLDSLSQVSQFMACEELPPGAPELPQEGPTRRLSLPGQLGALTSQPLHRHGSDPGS
# Sequence of UniProt P08684 (P08684 whole entry, looked up): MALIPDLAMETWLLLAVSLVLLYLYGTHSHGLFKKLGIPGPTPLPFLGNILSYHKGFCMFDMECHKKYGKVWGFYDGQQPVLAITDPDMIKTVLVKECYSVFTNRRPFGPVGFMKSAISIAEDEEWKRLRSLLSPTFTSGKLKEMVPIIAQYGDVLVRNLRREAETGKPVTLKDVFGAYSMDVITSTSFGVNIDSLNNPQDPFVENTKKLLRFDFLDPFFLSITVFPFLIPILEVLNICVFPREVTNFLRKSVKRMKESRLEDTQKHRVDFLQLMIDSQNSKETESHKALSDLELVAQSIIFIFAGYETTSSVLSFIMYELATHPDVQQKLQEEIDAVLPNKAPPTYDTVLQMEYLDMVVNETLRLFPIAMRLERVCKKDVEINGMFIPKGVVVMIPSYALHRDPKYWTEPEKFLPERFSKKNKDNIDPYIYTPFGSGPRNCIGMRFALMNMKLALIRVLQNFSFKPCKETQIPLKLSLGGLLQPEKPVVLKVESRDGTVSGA
compound,measurement,setting,value
O=C(c1ccccc1)c1cc(Cl)ccc1O,"activity, negative = inhibition",[1],inconclusive: -11.5%
same,Potency,[2],"inconclusive: 46.1 µM [activator, partial curve]"
same,Potency,[3],"inconclusive: 46.5 µM [inhibitor, partial curve, poor fit]"
COc1ccc(-c2coc3cc(O)ccc3c2=O)cc1,"activity, negative = inhibition",[1],inconclusive: -0.0344%
same,Potency,[4],"inconclusive: 63.3 µM [inhibitor, partial curve]"
same,Potency,[5],"inconclusive: 89.4 µM [inhibitor, single point]"
O=C1CCCN1C1CCCCC1,"activity, negative = inhibition",[1],inconclusive: -4.79%
same,Potency,[5],"inconclusive: 89.4 µM [inhibitor, single point]"
same,Potency,[6],"inconclusive: 39.9 µM [inhibitor, partial curve]"
Nc1nc(N)c2nc(CNc3ccc(C(=O)N[C@@H](CCC(=O)O)C(=O)O)cc3)cnc2n1,"activity, negative = inhibition",[1],inconclusive: -31.8%
same,Potency,[2],"inconclusive: 22.7 µM [activator, partial curve, poor fit]"
same,Potency,[6],inactive
Cc1cccc(Nc2cc(Cl)nc(SCC(=O)O)n2)c1C,"activity, negative = inhibition",[1],inconclusive: -1.83% [at 35.3 µM]
same,Potency,[4],inactive
same,Potency,[5],"inconclusive: 89.4 µM [inhibitor, single point]"
same,Potency,[6],inactive
O=c1cc(-c2ccc(O)cc2)oc2cc(O)cc(O)c12,"activity, negative = inhibition",[1],inconclusive: 20.4% and inconclusive: 24.9%
same,Potency,[4],"inconclusive: 39.9 µM [inhibitor, partial curve]"
CC(C)Oc1ccccc1O,"activity, negative = inhibition",[1],inconclusive: 0.432%
same,Potency,[5],"inconclusive: 71 µM [inhibitor, single point]"
O=C(OCC(COC(=O)c1ccccc1)(COC(=O)c1ccccc1)COC(=O)c1ccccc1)c1ccccc1,"activity, negative = inhibition",[1],inconclusive: 7.4%
same,Potency,[4],inactive
same,Potency,[7],active: 5.63 µM
O=C1OC(=O)c2cccc3cccc1c23,"activity, negative = inhibition",[1],inconclusive: -8.65%
same,Potency,[7],inactive
O=[N+]([O-])c1ccc2nc[nH]c2c1,"activity, negative = inhibition",[1],inconclusive: 0.355% and inconclusive: -0.792%
same,Potency,[4],"inconclusive: 64.6 µM [inhibitor, partial curve, poor fit]"
same,Potency,[5],inconclusive: 81.3 µM [inhibitor]
same,Potency,[7],"inconclusive: 64.6 µM [inhibitor, partial curve] and inconclusive: 63.3 µM [inhibitor, partial curve, poor fit]"
same,Potency,[8],inconclusive: 36.3 µM [inhibitor]
c1ccc2sc(SSN3CCOCC3)nc2c1,"activity, negative = inhibition",[1],inconclusive: -17%
same,Potency,[4],"inconclusive: 28.2 µM [inhibitor, partial curve] and inconclusive: 22.4 µM [inhibitor, full curve]"
same,Potency,[6],active: 20 µM and active: 22.4 µM
same,Potency,[3],"inconclusive: 54.8 µM [inhibitor, single point]"
CN1C(C(=O)Nc2ccccn2)=C(O)c2ccccc2S1(=O)=O,"activity, negative = inhibition",[1],inconclusive: -5.69% [at 35.3 µM]
same,Potency,[2],"inconclusive: 21.9 µM [activator, partial curve, poor fit]"
same,Potency,[4],active: 40.3 µM
same,Potency,[6],"inconclusive: 63.9 µM [inhibitor, partial curve, poor fit]"
CN(Cc1cc(Br)cc(Br)c1N)C1CCCCC1,"activity, negative = inhibition",[1],inconclusive: -27.6% [at 35.3 µM]
same,Potency,[9],active: 8.91 µM
same,Potency,[4],active: 0.0078 µM
same,Potency,[7],"inconclusive: 27.5 µM [inhibitor, partial curve]"
O=S(=O)(c1cccc2cnccc12)N1CCCNCC1,"activity, negative = inhibition",[1],inconclusive: -5.44% [at 35.3 µM]
same,Potency,[2],"inconclusive: 33.5 µM [activator, single point]"
same,Potency,[7],"inconclusive: 24.5 µM [inhibitor, partial curve]"
CO[C@@]1(NC(=O)C(C(=O)O)c2ccc(O)cc2)C(=O)N2C(C(=O)O)=C(CSc3nnnn3C)CO[C@@H]21 (some centres not stated),"activity, negative = inhibition",[1],inconclusive: 1.04% [at 35.3 µM]
same,Potency,[9],inactive
Brc1c2ccccc2c(Br)c2ccccc12,"activity, negative = inhibition",[1],inconclusive: 16.5% [at 6.97 µM]
same,"activity change, negative = inhibition",[7],inactive: -3.76% [at 10.5 µM]
NS(=O)(=O)c1cc2c(cc1Cl)NC(C1CC3C=CC1C3)NS2(=O)=O (configuration not stated),"activity, negative = inhibition",[1],inconclusive: -0.996% [at 35.3 µM]
same,Potency,[4],inconclusive: 34.7 µM [inhibitor]
same,Potency,[6],"inconclusive: 27.5 µM [inhibitor, partial curve]"
